Source: PubChem BioAssay
This list was built around the results that the source calls inconclusive (neither active nor inactive); the mix of calls is not that of the screen. Active and inactive are the calls of the source.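 Rule for the calls: active = cell viability at or below a set limit in both duplicate runs, the limit being the all-compound median minus 4 SD (cut at about 23% in these data, passing the limit was not always enough); inconclusive = no clear call, values can overlap the other calls; inactive = the rest.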

Assay: viability of HCT116 without oncogenic beta-catenin – human colon tumor cells, pilot screen (AID 823);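 note: 0% = wells killed by 20 µM Hyamine and 100% = untreated DMSO cell wells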
Conditions: HCT116 beta-catenin knockout viability, CellTiter-Glo, 60 h; at 10 µM; hits give low values

SMILES | viability
CCN1CCN(c2cc(C)c3cc(NC(=O)c4ccc5c(c4)OCO5)ccc3n2)CC1 | inconclusive: 24.5%
Cc1c(C(=O)NCc2ccccn2)oc2ccc(S(=O)(=O)N3CCOCC3)cc12 | inconclusive: 103%
COc1cc(C(C)=O)ccc1OC(=O)C(C)N1C(=O)c2ccccc2C1=O (stereo not given) | inconclusive: 94.9%
Cc1noc(C)c1CSc1nnc(-c2cc(Cl)ccc2Cl)n1N | inconclusive: 102%
COc1ccc(CCNS(=O)(=O)c2ccc3c(c2)OCCO3)cc1OC | inconclusive: 109%
O=C(Nc1nc(-c2ccccc2)cs1)c1cccs1 | inactive: 66.3%
O=C(CN1CCN(c2ccccn2)CC1)N(c1ccccc1)c1ccc2ccccc2c1 | inconclusive: 69.7%
CCNc1nc(NCC)nc(OCCNS(=O)(=O)c2cc(C)ccc2C)n1 | inconclusive: 107%
CCN(CC)C(=O)CSc1nsc(SCC(=O)N(CC)CC)c1C#N | inconclusive: 99.5%
CC(O)CN1C(=O)C(CC(=O)Nc2ccc(Cl)cc2)SC1=Nc1ccccc1 (stereo not given) | inconclusive: 69.1%
CCCCOC(=O)c1[nH]c2c(c1C)C(=O)CC(c1cc(OC)c(OC)c(OC)c1)C2 (stereo not given) | inconclusive: 33.8%
CC(=O)N1CCN(S(=O)(=O)c2ccc(C)cc2)C1c1ccc(N(C)C)cc1 (stereo not given) | inconclusive: 99.3%
O=c1c2cnn(-c3ccccc3)c2nc(-c2ccco2)n1-c1ccccc1 | inconclusive: 48.1%
CN1CCN(C(=O)c2c(NC(=O)c3ccco3)sc3c2CCC(C(C)(C)C)C3)CC1 (stereo not given) | inconclusive: 95.6%
CCOC(=O)N1CCN(C(=O)CS(=O)(=O)c2cn(Cc3ccccc3C)c3ccccc23)CC1 | inconclusive: 99.1%
COc1cc2c(cc1NC(=O)c1ccco1)CCCC2 | inconclusive: 92.3%
CCSc1nsc(SCC)c1C(N)=O | inconclusive: 106%
O=C(CN1CCCCC1)Nc1ccc(F)c(Cl)c1 | inconclusive: 106%
c1ccc(Oc2nc(Oc3ccccc3)nc(N3CCOCC3)n2)cc1 | inactive: 83.7%
COc1cc(OC)cc(C(=O)Nc2cccc(C(C)=O)c2)c1 | inconclusive: 101%
Cc1c(C(=O)NCC2CCCO2)oc2ccc(S(=O)(=O)N3CCCC3)cc12 (stereo not given) | inconclusive: 97.6%
Cc1csc(SCC(=O)c2ccc(S(=O)(=O)N3CCOCC3)cc2)n1 | inconclusive: 102%
Cc1ccc(N(CC(=O)NCc2ccco2)S(=O)(=O)c2ccccc2)cc1 | inconclusive: 96.2%
O/N=C1/C2C3CC4C5C3C1C5C1(OCCO1)C42 (stereo not given) | inconclusive: 92.4%
COc1ccccc1C(=O)Nc1ccc2c(c1)OCO2 | inconclusive: 91.7%
